Values marked as one replicate rest on one cluster of the flow cell; about a third of the high ones do not repeat.
Test system: ATP
Experiment: switch fluorescence ratio, 500 uM ATP over buffer (Cy3 cluster intensity, sum of 5 cycles each) (fold (ratio)); higher = stronger signal-on switching upon ATP binding; sequences stand for … in TCGTCGGCAGCGTCAGATGTGTATAAGAGACAGTTTTTTTTTTTTTTTTTTTTTTTTT…TC
Conditions: aptamer strand: ATP DNA aptamer (quencher-CACCTGGGGGAGTATTGCGGAGGAAGG + anchor), 100 nM annealed; ATP concentration: 500 uM; one replicate
In short: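 After annealing to 100 nM quencher-labelled ATP aptamer, Cy3-labelled switching-strand clusters on a modified Illumina MiSeq flow-cell were imaged in selection buffer. A second image followed after 15 min with 500 uM ATP at 22 °C, and five such buffer/ATP cycles were done, each separated by NaOH stripping and re-annealing. The fluorescence ratio, averaged per switch-domain sequence, is summed target-cycle over summed buffer-cycle Cy3 intensity per cluster, with clusters outside 100-1000 RFU excluded.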
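Also: ATP exposure 15 min at 22 °C before imaging.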

Row | Sequence | switch fluorescence ratio
1 | CATAATGATC | 1.02
2 | TATCTTGTTG | 1.02
3 | GACTAATCTG | 1.05
4 | GGAAGATTCA | 0.979
5 | AATCAGGGTT | 0.98
6 | GGGTGTTCCG | 0.994
7 | CCAAGAAGTT | 1.68
8 | CGTTGCATTC | 1.37
9 | CAAAAGAAC | 1.12
10 | TCATCTTAGT | 1.01
11 | GGTGAGCGAC | 0.962
12 | TGGTAATCAG | 1
13 | GGGTCTAACT | 1.05
14 | ATGCCGCTTG | 0.994
15 | AGGGGCGGCA | 0.979
16 | ATTTTGAGAT | 0.971
17 | CAGGTTTGCA | 0.988
18 | TTAACGTGCA | 0.969
19 | TATGACAGTT | 0.947
20 | GTTGGGTTCG | 0.985
21 | TATCTTTCGA | 1.02
22 | CGCGCGGATG | 0.999
23 | AATGGGGATA | 1.02

Row | Sequence | switch fluorescence ratio
24 | GAGCATTTGA | 1.04
25 | TCAGGCACTG | 0.995
26 | CCTAGTAGCT | 1.09
27 | ATAGGGATTA | 1.03
28 | AAAGGACTTC | 1.06
29 | GAGAGGAATC | 0.925
30 | TATAGAGACA | 1.01
31 | TGACCAAGCG | 1.05
32 | ATCAAAACG | 1.02
33 | ACGGACGGTG | 1.12
34 | TAGCGTTGTC | 0.986
35 | CCGGGTTCGT | 0.999
36 | TGAGTGAAGT | 0.968
37 | TTAAACTTCT | 1.06
38 | CGAAATGCTC | 2.84
39 | TAGTTTGTAG | 1.02
40 | CAGTGCATAG | 1.02
41 | GACACAAATG | 1.02
42 | ACGATGAGTG | 0.97
43 | AGGGCGTATG | 1.04
44 | AGCACGTTCC | 3.19
45 | ACGATCTTAC | 1.36
46 | TTATGGATAC | 1.76

Row | Sequence | switch fluorescence ratio
47 | ACCTATTAAT | 1
48 | ACTAGTCCTG | 1.02
49 | TACAGACATC | 1.05
50 | TAGTGGGTG | 0.996
51 | TTCGTCATAG | 1.02
52 | ACATTTTTTA | 0.967
53 | AACAATAG | 1.1
54 | CGGGATCGCC | 0.924
55 | TGACGTGAGT | 0.999
56 | ACATGAGTT | 1
57 | TGGTCAAATT | 1.01
58 | CGTCCTTACA | 1.06
59 | CGTTATCAGA | 0.997
60 | CTGGTGTCTG | 1.05
61 | CCAGAGATGG | 1.01
62 | GAATCGCTGT | 0.969
63 | CCAGTGCGAG | 1.01
64 | GCAGTTTGTA | 0.993
65 | GTTGGACAAG | 1.02
66 | ACCTTTCTGC | 1.7
67 | GCTGCAACTG | 1.07
68 | ATTCTGGGGC | 0.989
69 | TACCATACGA | 1.48

Row | Sequence | switch fluorescence ratio
70 | GGCGCTCCAC | 1.14
71 | TCAAGCGAAA | 0.989
72 | CGGGTCAGC | 0.964
73 | GCAAATGGCT | 1.01
74 | ATCGCTGTCG | 1.03
75 | AATCGTAGGA | 1.05
76 | TTGAGTATCG | 0.991
77 | CCTTATGAAA | 1
78 | TAGGCCCGTC | 1.02
79 | ATATCATGGC | 1.03
80 | ATGTCCAGGC | 1.03
81 | TCTGTTGGCT | 1.03
82 | GTGCCGGGGG | 1.02
83 | AAGGTCGCCT | 0.984
84 | TCGCTGCCTC | 1.04
85 | GCGCCTTTAA | 0.994
86 | TTCAGTAATA | 1.01
87 | CACTCAGACT | 1.03
88 | GTGGTGCTGG | 1.01
89 | CCAAGAATAT | 1.02
90 | TGCCAAGTG | 0.983
91 | TGGAGTTCAC | 1
92 | ATTTGCAACG | 1.03

Row | Sequence | switch fluorescence ratio
93 | TTATGAGATT | 0.952
94 | AGCGACATTA | 1.01
95 | GTTTTACAGG | 1.04
96 | TTAAGTATGA | 0.966
97 | GGTGTTGCTT | 0.987
98 | TATTTGTTAC | 1.04
99 | TATTTGTGTA | 0.959
100 | CGGCTAGTTG | 1.02
101 | GTTCTTACCT | 1.19
102 | GCTATATGC | 1.06
103 | TACATTTTCC | 1.11
104 | CTCGACTCCG | 1.11
105 | ACTTGAGATG | 1.02
106 | CTGGGCTTGG | 0.932
107 | TTATATAGCG | 0.973
108 | TTGACGGTTA | 0.988
109 | ACAGTAACGT | 1.12
110 | TTTTGTGCG | 0.922
111 | ATTCAGGGTT | 0.996
112 | TGAGGGACCA | 1.01
113 | AATGGACGAC | 1.09
114 | TCCGTCACGT | 1.1
115 | TACTGTGGCG | 0.98

Row | Sequence | switch fluorescence ratio
116 | ACTGTGTGCT | 0.994
117 | CTGGACCTGT | 1
118 | TAGAGGTGCG | 1.1
119 | CACGTGGGAC | 1.11
120 | TAGTGTCTTC | 0.95
121 | GCCTTATCCC | 0.992
122 | TCCGATGGTC | 1.44
123 | AAATGTCTCA | 0.999
124 | GAAGCCCTGC | 1.09
125 | AGATAGTAAG | 1
126 | GCTTTTCGTC | 0.974
127 | TGGGCGTCGT | 0.981
128 | TAATAGTTTT | 0.982
129 | AAGTAGAGGC | 1.03
130 | GGAGTCGGCA | 0.933
131 | TATCTTCGAT | 0.961
132 | GTCCATCTTG | 1.03
133 | TAATTTGCCA | 0.958
134 | TGAACTTTGA | 1.07
135 | ACATTTAGCG | 0.978
136 | CCTGGGCCGT | 0.961
137 | ATTTAGGTCG | 0.952
138 | GAATTAAAAG | 1.08

Row | Sequence | switch fluorescence ratio
139 | GTTTGAGTGT | 0.928
140 | CAGTATGGAC | 1.02
141 | CGTATGCTGA | 0.939
142 | GGTGGATGTT | 1.5
143 | GCCTCGGGGT | 0.994
144 | ATCCAAGAG | 1.07
145 | CGAGCGAGAT | 1.02
146 | TGCGTTGAAT | 1.01
147 | CCGTGAATGT | 1.23
148 | CTTGGCATAT | 1.27
149 | CTTGGTGATT | 0.937
150 | AGGAGTTCCC | 0.964
151 | TTCAATGCTT | 1
152 | AACCTTCGGT | 0.983
153 | GTGTCAGTGG | 0.988
154 | GGCAAGTTGT | 0.957
155 | GATCGGCGTT | 1
156 | TAAAATAAGT | 1
157 | TACTTAACTC | 1.13
